# Out of some 340,000 compounds screened, about 12,000 (3.5%) were called active. The inconclusive results got no clear call from the source; some entries with a clear call stand among them for comparison. Calls follow the shape of the dose curve; as a rule, active = well fitted inhibition curve with a large enough effect; inconclusive = small, poorly fitted or top-dose-only effect, or another doubt; inactive = no such curve, though single readings can be large or run the other way. Potencies of inconclusive entries are left out as doubtful fits.
# Test: qHTS Assay for Inhibitors of Hepatitis C Virus (HCV)
# Details: Huh7.5.1 HCVcc-Cre (HCVcc is cell-culture hepatitis C virus) infection, luciferase reporter, 44 h; series mostly up to 41.8 µM
# Procedure, shortened: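 Whole-lifecycle infectious HCVcc-Cre system; cells 1,000/well, compound then virus (~0.5 moi) added 4 h after plating, 44 h culture. Luciferase read 15 sec following 15 min substrate incubation, room temp.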
# Potency is read from the fitted curve at half-maximal effect; tags tell the direction and shape of the fitted curve.
row,SMILES,Potency
1,CCOc1ccc(-c2nc(CSCC(=O)NC3CCCc4ccccc43)c(C)o2)cc1 (stereo unspecified),active: 17.8 µM
2,Cc1ccc(SCC2(O)CCN(S(=O)(=O)c3ccc(Cl)cc3)CC2)cc1,"inconclusive [inhibitor, single point]"
3,CC(=O)c1c(-c2ccccc2)[nH]c2ccccc12,"inconclusive [inhibitor, single point]"
4,Cc1csc(NC(=O)CSc2nnc(-c3cccs3)n2C)n1,inactive
5,O=[N+]([O-])c1ccc(/C=C/c2ccc3cccc([N+](=O)[O-])c3n2)cc1,inactive
6,CCC1=C(CC2NCCc3ccccc32)CC2c3cc(OC)c(OC)cc3CCN2C1 (stereo unspecified),"inconclusive [inhibitor, full curve]"
7,COc1cc(C(=O)N2CCCN(c3nc4cc(C)ccc4cc3C#N)CC2)cc(OC)c1OC,"inconclusive [inhibitor, single point]"
8,CC(=O)Cc1c(C(=O)O)c(C)nn1-c1ccccc1,inactive
9,CCCCn1c(=O)[nH]c(=O)c2c1ncn2Cc1ccco1,inactive
10,COc1cc(-c2cc(C(=O)OCC(=O)Nc3ccc4c(c3)OCO4)c3ccccc3n2)cc(OC)c1OC,"inconclusive [inhibitor, full curve, poor fit]"
11,Cc1nnc(SCC(=O)N(CC(C)C)C2CCS(=O)(=O)C2)s1 (stereo unspecified),"inconclusive [inhibitor, single point]"
12,O=C(CSCc1ccc([N+](=O)[O-])cc1)Nc1ccc(S(=O)(=O)N2CCCCCC2)cc1,inactive
13,CC(/C=C/c1ccc(O)cc1)=NNc1ccccc1,"inconclusive [inhibitor, single point]"
14,CN(C)C(=O)/C(C#N)=C\c1cc(Br)c(Sc2ccc(Cl)cc2)o1,"inconclusive [inhibitor, single point]"
15,Cc1nc2ccccc2c(=O)n1NC(=O)c1c(O)c2c(n(CC(C)C)c1=O)CCCC2,"inconclusive [inhibitor, single point]"
16,CN1CCN(C2Cc3ccc(Cl)cc3Sc3ccc(F)cc32)CC1 (stereo unspecified),active: 31.6 µM
17,Cc1ccc(C(=O)N2CCCC(c3ccc(Cl)cc3)=N2)cc1,"inconclusive [inhibitor, partial curve]"
18,CC(C)NS(=O)(=O)c1ccc(NC(=S)NC(=O)c2ccc(-c3ccccc3)cc2)cc1,"inconclusive [inhibitor, partial curve]"
19,Cc1c(NC(=O)c2ccc3c(c2)OCO3)cccc1-c1nc2ccccc2o1,"inconclusive [inhibitor, single point]"
20,Cc1cc(C)cc(NC(=O)CCCSc2nc3ccccc3[nH]2)c1,"inconclusive [inhibitor, single point]"
21,O=C(c1nc2nc(-c3ccccc3)cc(C(F)(F)F)n2n1)N1CCCCC1,"inconclusive [inhibitor, single point]"
22,C=CCOC(=O)C1=C(C)NC(=S)NC1c1cccs1 (stereo unspecified),"inconclusive [inhibitor, full curve]"

row,SMILES,Potency
1,CN(C)/C=N/c1ncc(C(=O)c2ccc(Cl)cc2Cl)s1,"inconclusive [inhibitor, partial curve]"
2,Cc1nc(N)sc1-c1csc(Nc2ncccn2)n1,"inconclusive [inhibitor, single point]"
3,COc1cc2[nH]c(=O)n(CCC(=O)N3CCN(c4cc(Cl)ccc4C)CC3)c(=O)c2cc1OC,"inconclusive [inhibitor, single point]"
4,CC1(c2ccccc2)NC(=O)N(CC(=O)Nc2nnc(C3CC3)s2)C1=O (stereo unspecified),inactive
5,O=C(NCc1ccco1)c1ccc2c(c1)N(Cc1ccccc1)CCS2,inactive
6,COc1cccc(C2C(C(=O)c3cccs3)=C(O)C(=O)N2CCN2CCOCC2)c1 (stereo unspecified),"inconclusive [inhibitor, single point]"
7,O=C1Cc2cc(S(=O)(=O)N3CCN(c4ccccc4)CC3)ccc2N1,inactive
8,COc1ccc(C(=O)C2CCCN(Cc3ccc(F)cc3F)C2)cc1F (stereo unspecified),inactive
9,Cc1coc2c(C)c3oc(=O)c(CCC(=O)NCCN4CCOCC4)c(C)c3cc12,"inconclusive [inhibitor, partial curve]"
10,O=C(COc1ccc(S(=O)(=O)NC2CCCCC2)cc1)N1CCN(c2cccc(Cl)c2)CC1,active: 7.08 µM
11,N#C/C(=C(/O)C(Cl)c1ccccc1)c1nc2ccccc2s1 (stereo unspecified),"inconclusive [inhibitor, partial curve]"
12,CC(C)C(=O)N1CCN(c2ccc(NC(=O)c3ccc([N+](=O)[O-])o3)cc2Cl)CC1,active: 10 µM
13,Cc1ccc(C(c2nnnn2CCc2ccccc2)N2CCC(C)CC2)cc1 (stereo unspecified),"inconclusive [inhibitor, partial curve, poor fit]"
14,NCCCn1c(C(=O)c2ccc(Cl)cc2)c2ccc(C(F)(F)F)cc2[n+]1[O-],"inconclusive [inhibitor, full curve, poor fit]"
15,Cc1nc(NC(=O)CCc2ccccc2)ccc1Br,"inconclusive [inhibitor, single point]"
16,Cc1cc[n+](CC(=O)N2CCCc3ccccc32)cc1,inactive
17,O=C(COC(=O)c1cc([N+](=O)[O-])ccc1N1CCOCC1)Nc1cc(F)ccc1F,"inconclusive [inhibitor, full curve]"
18,CC(C)CNC(=O)c1ccccc1NC(=O)c1ccc(CN2CCOCC2)cc1,"inconclusive [inhibitor, partial curve]"
19,O=C(NC1CCCCC1)C(c1ccc2ncccc2c1)N(Cc1cccs1)C(=O)c1cccs1 (stereo unspecified),"inconclusive [inhibitor, single point]"
20,OC[C@@H]1[C@@H](c2ccc(Cl)cc2)C(c2cccc(Cl)c2)=NN1c1ccccc1,"inconclusive [inhibitor, partial curve]"
21,CCOC(=O)c1sc(C)c2c1NC(C)(c1cccs1)NC2=O (stereo unspecified),"inconclusive [inhibitor, partial curve]"
22,Cc1cc(C(C)(C)C)ccc1OCCOCCN1CCCC1,"inconclusive [inhibitor, partial curve]"

row,SMILES,Potency
1,CC(=O)N1c2ccc(S(=O)(=O)NCC3CCC(C(=O)N4CC(C)CC(C)C4)CC3)cc2CC1C (stereo unspecified),active: 14.1 µM
2,O=C(NCC1CCCC(CNC(=O)N2CCc3ccccc32)C1)N1CCc2ccccc21 (stereo unspecified),"inconclusive [inhibitor, single point]"
3,CCCCOc1ccc(C(=O)NCc2ccccn2)cc1,"inconclusive [inhibitor, single point]"
4,O=C(N/N=C\c1ccc(COc2ccc([N+](=O)[O-])cc2)o1)c1ccc(Cl)cc1,"inconclusive [inhibitor, partial curve, poor fit]"
5,COc1ccc(-c2cc(C(F)(F)F)c(C#N)c(SCC(=O)Nc3ccccc3C#N)n2)cc1,"inconclusive [inhibitor, single point]"
6,COc1cc(C(=O)NCC(c2ccco2)N2CCCC2)ccc1OCc1ccc(Cl)cc1Cl (stereo unspecified),"inconclusive [inhibitor, partial curve]"
7,COc1ccc(/C=C/C(=O)N(C)C2(C)CCS(=O)(=O)C2)cc1 (stereo unspecified),inactive
8,NC(=O)NC(=O)CSc1nc(-c2ccccc2)c(-c2ccccc2)n1CC1CCCO1 (stereo unspecified),"inconclusive [inhibitor, partial curve, poor fit]"
9,O=[N+]([O-])c1cn(-c2nc(-c3ccco3)cc(C(F)(F)F)n2)cn1,"inconclusive [inhibitor, partial curve]"
10,COc1cccc2cc(-c3cc(=O)oc4ccc(OCC(C)=O)cc34)oc12,"inconclusive [inhibitor, partial curve]"
11,COc1ccc(NC(=O)COC(=O)c2cccn2C)cc1S(=O)(=O)N1CCCCC1,"inconclusive [inhibitor, partial curve]"
12,FC(F)(F)c1cccc(N2CCN(Cc3ccoc3)CC2)c1,"inconclusive [inhibitor, partial curve]"
13,Cc1ccc(NS(=O)(=O)c2ccc3c(c2)CCC(=O)N3)cc1C,"inconclusive [inhibitor, single point]"
14,CS(=O)(=O)Nc1ccc(C(=O)CSc2nnc(C3CC3)n2C2CC2)cc1,"inconclusive [inhibitor, single point]"
15,CN(CC(=O)Nc1ccccc1C(F)(F)F)C(=O)C1CCN(S(=O)(=O)c2ccc3c(c2)OCCO3)CC1,inactive
16,CC(=O)c1cccc([N+](=O)[O-])c1,"inconclusive [inhibitor, single point]"
17,CCOc1ccc(N(CC(=O)NCc2ccc(OC)cc2)C(=O)CCC(=O)Nc2nccs2)cc1,"inconclusive [inhibitor, partial curve]"
18,CCCC(=O)N(CCc1ccc(OC)cc1)Cc1nc2ccccc2c(=O)[nH]1,"inconclusive [inhibitor, single point]"
19,Cc1ccccc1-c1nc(-c2ccc(NC(=O)c3ccc(Br)o3)cc2)no1,"inconclusive [inhibitor, full curve]"
20,COc1ccc2nc(NCc3ccc(OC)c(OC)c3OC)sc2c1,"inconclusive [inhibitor, partial curve]"
21,O=S(=O)(c1ccc(OC(F)(F)F)cc1)N1CCC(O)(c2cccc(C(F)(F)F)c2)CC1,active: 8.91 µM
22,Cc1ccc(NC(=O)CCC2CC(C)(C)OC2=O)cc1 (stereo unspecified),active: 3.98 µM
